Data reported in patent US9353185B2, “Antibodies” (Affitech Research AS, priority 2010, dated 2016).

Target: T1, CXCR4 (Homo sapiens, UniProt P61073)
T1 construct: CRL-1596 (Ramos); host or cells: Ramos, Jurkat 6E-1, CCRF-CEM
Assay: Inhibition of SDF-1α ligand induced Ca++ flux in CCRF-CEM cells (Fluo-4)
Type: cell-based
Conditions: CCRF-CEM cells
Protocol: 9N10 was only tested on IgG level. The experiment was performed using the naturally CXCR4^+ positive cell line CCRF-CEM.
The CCRF-CEM target cells, were harvested by centrifugation and washed twice in RPMI-1640 culture medium. Either 1 ml with 2.5×10^6 cells (for IgGs) or 10 ml with 2.5×10^7 cells (for scFvs) were mixed with Fluo-4-AM (acetoxymethyl ester; Invitrogen), Pluronic F-127 (Invitrogen) and Probenecid to final concentrations of 1 μM, 0.02% and 1 mM respectively. The cells were incubated at 37° C. for 60 mM on a vertical rotating wheel (7 rpm). All subsequent steps were done in the presence of 1 mM Probenecid. The cells were washed twice in RPMI-1640 with 10% fetal calf serum (FCS), once in an assay buffer (145 mM NaCl, 4 mM KCl, 1 mM NaH2PO4, 0.8 mM MgCl2, 25 mM Hepes, 22 mM glucose) and then resuspended to a final density of 4×10^6 cells/ml. Equal volumes of cells, assay buffer with or without antibodies and ligand (SDF-1α) were mixed. The first two components (cells and antibodies) were pre-incubated for 15 min prior to adding the ligand, SDF-1α (final concentration 50 ng/ml). The final concentrations of antibodies were 10 μg/ml or 100 μg/ml for IgGs and 4 μg/ml for scFvs. The samples were immediately analyzed using the 515-545 nm band pass filter on a FACSCanto II (BD Biosciences). The areas under the curves (AUC) were integrated using software Prism (GraphPad) and plotted as percentage of AUC for maximal stimulation with SDF-1α alone.
The experiment was performed as described above, but the antibodies were used in a titration series with concentrations of 100, 20, 4, 0.8, 0.16, 0.032, 0.064 and 0.00128 μg/ml.

T1 sequence (P61073 whole entry): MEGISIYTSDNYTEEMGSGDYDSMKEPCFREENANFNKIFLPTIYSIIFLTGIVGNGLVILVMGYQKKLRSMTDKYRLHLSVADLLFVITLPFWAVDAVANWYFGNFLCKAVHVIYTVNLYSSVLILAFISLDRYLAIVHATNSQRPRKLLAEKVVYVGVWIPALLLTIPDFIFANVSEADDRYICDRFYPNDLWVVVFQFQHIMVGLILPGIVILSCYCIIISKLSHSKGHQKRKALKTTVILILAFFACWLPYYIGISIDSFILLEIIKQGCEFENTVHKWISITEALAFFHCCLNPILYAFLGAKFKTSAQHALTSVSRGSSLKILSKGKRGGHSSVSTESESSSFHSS

B1: C-1I24: human anti-CXCR4 antibody; scFv SEQ ID NO: 57; IgG1/lambda heavy chain SEQ ID NO: 116, light chain SEQ ID NO: 117 (antibody)
heavy: QVQLVQSGGGVVQPGRSLRLSCAASGFTFSSYGMHWVRQAPGKGLEWVAVISYDGSNKYYADSVKGRFTISRDNSKNTLYLQMNSLRAEDTAVYYCAKDLPITRGTGADYWGQGTLVTVSS[human IgG1 constant region left out]
light: QSVLIQPASVSGSPGQSITISCTGTSSDVGGYNYVSWYQQHPGKAPRLMIYDVTSRPSGVSNRFSGSKSGNTASLTISGLQAEDEADYYCSSYAGSYSVVFGGGTKVTVLGQPKAAPSVTLFPPSSEELQANKATLVCLISDFYPGAVTVAWKADSSPVKAGVETTTPSKQSNNKYAASSYLSLTPEQWKSHRSYSCQVTHEGSTVEKTVAPTECS
modifications: antibody sequence
In the case of B1, the “inhibition of SDF-1α-induced signalling, IgG level” value (IgG 10 or 100 μg/ml (9N10: 1 or 10 μg/ml)) is reported as “inhibition of SDF-1α-induced signalling was demonstrated”, the “antagonistic activity on SDF-1α induced Ca++ flux, scFv level” value (scFv 4 μg/ml) is reported as “some antagonistic effect” and the “antagonistic effect on Ca++ signalling induced by SDF1α binding to CXCR4 (overall)” value (scFv and/or IgG) is reported as “capable of inhibiting ligand induced signalling via CXCR4”.
